Experimental data taken from the supplement of paper PMC8728848.
The list shows a part of the results.

Tests used:
Test in all cases: glycan array binding signal (z-score within array); higher = stronger binding
Details in all cases: glycan notation: IUPAC condensed, linker removed
[1] = biological target: GlcNAc(b1-4)GlcNAc(b1-4)GlcNAc(b1-4)GlcNAc(b1-4)GlcNAc(b1-4)GlcNAc
Method in brief: (§1)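 Columns mapping to the same glycan were averaged after glycan names were converted to IUPAC-condensed notation. The data come from 3228 arrays in the Consortium for Functional Glycomics database, limited to those with an available protein sequence. Binding is reported as a within-array Z-score averaged across arrays of one protein sequence and across linkers.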

[2] = biological target: GlcNAc(b1-4)[GlcNAc(b1-6)]GalNAc
Method in brief: as §1

[3] = biological target: GlcNAc(b1-6)Gal(b1-4)GlcNAc
Method in brief: as §1

[4] = biological target: GlcNAc(b1-6)GalNAc
Method in brief: as §1

[5] = biological target: GlcNAc6S(b1-3)Gal(b1-4)GlcNAc
Method in brief: as §1

[6] = biological target: Kdn(a2-3)Gal(b1-3)GalNAc
Method in brief: as §1

[7] = biological target: Kdn(a2-3)Gal(b1-3)GlcNAc
Method in brief: as §1

[8] = biological target: Kdn(a2-3)Gal(b1-4)Glc
Method in brief: as §1

[9] = biological target: Kdn(a2-3)Gal(b1-4)GlcNAc
Method in brief: as §1

[10] = biological target: Kdn(a2-3)Gal(b1-4)[Fuc(a1-3)]GlcNAc
Method in brief: as §1

[11] = biological target: Kdn(a2-6)Gal(b1-4)GlcNAc
Method in brief: as §1

[12] = biological target: Man(a1-2)Man(a1-2)Man(a1-3)Man
Method in brief: as §1

[13] = biological target: Man(a1-2)Man(a1-2)Man(a1-6)[Man(a1-3)]Man
Method in brief: as §1

[14] = biological target: Man(a1-2)Man(a1-3)Man
Method in brief: as §1

[15] = biological target: Man(a1-2)Man(a1-3)[Man(a1-2)Man(a1-6)]Man
Method in brief: as §1

[16] = biological target: Man(a1-2)Man(a1-3)[Man(a1-2)Man(a1-6)]Man(a1-6)[Man(a1-2)Man(a1-2)Man(a1-3)]Man
Method in brief: as §1

[17] = biological target: Man(a1-2)Man(a1-3)[Man(a1-2)Man(a1-6)]Man(a1-6)[Man(a1-2)Man(a1-2)Man(a1-3)]Man(b1-4)GlcNAc(b1-4)GlcNAc
Method in brief: as §1

[18] = biological target: Man(a1-2)Man(a1-3)[Man(a1-6)]Man(a1-6)[Man(a1-2)Man(a1-3)]Man(b1-4)GlcNAc(b1-4)GlcNAc
Method in brief: as §1

[19] = biological target: Man(a1-2)Man(a1-6)[Man(a1-3)]Man(a1-6)[Man(a1-2)Man(a1-2)Man(a1-3)]Man
Method in brief: as §1

[20] = biological target: Man(a1-2)Man(a1-6)[Man(a1-3)]Man(a1-6)[Man(a1-2)Man(a1-2)Man(a1-3)]Man(b1-4)GlcNAc(b1-4)GlcNAc
Method in brief: as §1

[21] = biological target: Man(a1-3)[Man(a1-6)]Man
Method in brief: as §1

[22] = biological target: Man(a1-3)[Man(a1-6)]Man(a1-6)[Man(a1-2)Man(a1-3)]Man(b1-4)GlcNAc(b1-4)GlcNAc
Method in brief: as §1

[23] = biological target: Man(a1-3)[Man(a1-6)]Man(a1-6)[Man(a1-3)]Man
Method in brief: as §1

[24] = biological target: Man(a1-3)[Man(a1-6)]Man(a1-6)[Man(a1-3)]Man(b1-4)GlcNAc(b1-4)GlcNAc
Method in brief: as §1

[25] = biological target: Man(a1-3)[Man(a1-6)]Man(b1-4)GlcNAc(b1-4)GlcNAc
Method in brief: as §1

[26] = biological target: Man(a1-3)[Man(a1-6)]Man(b1-4)GlcNAc(b1-4)[Fuc(a1-6)]GlcNAc
Method in brief: as §1

[27] = biological target: Man(a1-6)Man
Method in brief: as §1

[28] = biological target: Man(b1-4)GlcNAc
Method in brief: as §1

[29] = biological target: MurNAc(b1-4)GlcNAc
Method in brief: as §1

[30] = biological target: Neu5Ac(a2-3)Gal
Method in brief: as §1

[31] = biological target: Neu5Ac(a2-3)Gal(b1-3)GalNAc
Method in brief: as §1

[32] = biological target: Neu5Ac(a2-3)Gal(b1-3)GalNAc(b1-3)Gal(a1-4)Gal(b1-4)Glc
Method in brief: as §1

[33] = biological target: Neu5Ac(a2-3)Gal(b1-3)GalNAc(b1-4)[Neu5Ac(a2-3)]Gal(b1-4)Glc
Method in brief: as §1

[34] = biological target: Neu5Ac(a2-3)Gal(b1-3)GalNAc(b1-4)[Neu5Ac(a2-8)Neu5Ac(a2-3)]Gal(b1-4)Glc
Method in brief: as §1

[35] = biological target: Neu5Ac(a2-3)Gal(b1-3)GalNAc6S
Method in brief: as §1

[36] = biological target: Neu5Ac(a2-3)Gal(b1-3)GlcNAc
Method in brief: as §1

[37] = biological target: Neu5Ac(a2-3)Gal(b1-3)GlcNAc(b1-2)Man
Method in brief: as §1

[38] = biological target: Neu5Ac(a2-3)Gal(b1-3)GlcNAc(b1-2)Man(a1-3)[GlcNAc(b1-4)][Neu5Ac(a2-3)Gal(b1-3)GlcNAc(b1-2)Man(a1-6)]Man(b1-4)GlcNAc(b1-4)GlcNAc
Method in brief: as §1

[39] = biological target: Neu5Ac(a2-3)Gal(b1-3)GlcNAc(b1-2)Man(a1-3)[Neu5Ac(a2-3)Gal(b1-3)GlcNAc(b1-2)Man(a1-6)]Man(b1-4)GlcNAc(b1-4)GlcNAc
Method in brief: as §1

[40] = biological target: Neu5Ac(a2-3)Gal(b1-3)GlcNAc(b1-3)Gal(b1-3)GlcNAc
Method in brief: as §1

[41] = biological target: Neu5Ac(a2-3)Gal(b1-3)GlcNAc(b1-3)Gal(b1-4)GlcNAc
Method in brief: as §1

[42] = biological target: Neu5Ac(a2-3)Gal(b1-3)GlcNAc(b1-3)GalNAc
Method in brief: as §1

[43] = biological target: Neu5Ac(a2-3)Gal(b1-3)GlcNAc(b1-4)Gal(b1-4)Glc
Method in brief: as §1

[44] = biological target: Neu5Ac(a2-3)Gal(b1-3)GlcNAc(b1-6)GalNAc
Method in brief: as §1

[45] = biological target: Neu5Ac(a2-3)Gal(b1-3)GlcNAc6S
Method in brief: as §1

B1: GS7807E-bfa-538-23-538 (Bacteroides fragilis) (protein)
chain: TDSFESFNTNEAGFDNDSKKQDFNYYGIPLGIIQQGIYFNYDWGSGKNWPFQTMQNLGADLFSGYVHDFNPFNEGKNNSTYYMMDGWNGSTWDNTYGYIMPEVQKSETINEKDNIGFFGITKILKVELMHRLSDLYGPIVYTQFGSKTGSTPDTQQEAYKAFFNDLDTGIAKIREYQKANPDIESFAKFDILMPQGKRTFSEWIRFANSLRLRLAVRIAMADSKLAVAEAQKALTDEEGLLEGNDEVVAVSTSSGYTNPFGEINKAWGEVFMNANMESLLVGYEDPRMEKYFDKATGSDATSLIDYKGTYKGIRQGTGFSHKNYNGHSKSTITQQTDAVLMTPAEVWFLRAEAALRGWSSESVKDCYEKGVKASFAQWGAAGAEAYLESDRKPSDYVDAFKAANNVKAVNTLTPKWDDAAGNEDKLGRIITQKWLAMFPEGGEAWAEQRRTGYPRLFPVLVNQSEGTVDTNLGPRRLNFFVGIKTTNPEQYTQLVNALGGIDNCGTRLWWDTGRNF
glycan array binding signal (z-score) [1]: -0.544
glycan array binding signal (z-score) [2]: -0.662
glycan array binding signal (z-score) [3]: 2.02
glycan array binding signal (z-score) [4]: 1.4
glycan array binding signal (z-score) [5]: 3.84
glycan array binding signal (z-score) [6]: -0.018
glycan array binding signal (z-score) [7]: 2.05
glycan array binding signal (z-score) [8]: -0.064
glycan array binding signal (z-score) [9]: -0.276
glycan array binding signal (z-score) [10]: 0.59
glycan array binding signal (z-score) [11]: -0.638
glycan array binding signal (z-score) [12]: -0.684
glycan array binding signal (z-score) [13]: -0.683
glycan array binding signal (z-score) [14]: -0.657
glycan array binding signal (z-score) [15]: -0.699
glycan array binding signal (z-score) [16]: -0.657
glycan array binding signal (z-score) [17]: 0.743
glycan array binding signal (z-score) [18]: -0.615
glycan array binding signal (z-score) [19]: -0.621
glycan array binding signal (z-score) [20]: 0.304
glycan array binding signal (z-score) [21]: -0.621
glycan array binding signal (z-score) [22]: -0.332
glycan array binding signal (z-score) [23]: -0.651
glycan array binding signal (z-score) [24]: 3.45
glycan array binding signal (z-score) [25]: -0.656
glycan array binding signal (z-score) [26]: -0.624
glycan array binding signal (z-score) [27]: -0.587
glycan array binding signal (z-score) [28]: -0.611
glycan array binding signal (z-score) [29]: -0.66
glycan array binding signal (z-score) [30]: -0.641
glycan array binding signal (z-score) [31]: -0.634
glycan array binding signal (z-score) [32]: -0.298
glycan array binding signal (z-score) [33]: -0.353
glycan array binding signal (z-score) [34]: -0.27
glycan array binding signal (z-score) [35]: -0.669
glycan array binding signal (z-score) [36]: -0.613
glycan array binding signal (z-score) [37]: 0.319
glycan array binding signal (z-score) [38]: 0.435
glycan array binding signal (z-score) [39]: -0.521
glycan array binding signal (z-score) [40]: -0.707
glycan array binding signal (z-score) [41]: -0.676
glycan array binding signal (z-score) [42]: -0.673
glycan array binding signal (z-score) [43]: -0.531
glycan array binding signal (z-score) [44]: -0.277
glycan array binding signal (z-score) [45]: -0.64
